Test results reported in paper PMC12040169 (PLOS Biology, 2025).
This is one part of the list.

Each compound was assayed on T1, C. trachomatis L2/434/Bu expressing GFP (CTL2-GFP). Settings: total inclusion area; 28.5 h, 10 µM; inhibitor.
T1 construct: L2/434/Bu GFP intracellular growth in HeLa cells
Parameters: species or system HeLa; C. trachomatis total inclusion area by high-content imaging, normalised to DMSO
Procedure, shortened: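 Following bulk GFP and resorufin fluorescence reads, infected cells were fixed, Hoechst-stained and imaged on a high-content platform. Inclusion total area and number per well served as growth proxies; nuclei counts indicated host viability. MICs were derived as for the fluorescence assay.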
With `CC1=C[C@@H](CN2CCC(O)CC2)[C@H](C(C)C)C[C@H]1Cc1nnc(-c2ccccc2)o1` [CBK289220] the “% of control remaining” value was 108.054.
With `CCC(NC(=O)c1ccc(C#CC2(O)CCCCC2)cc1)C(=O)O` (stereo not shown) [CBK287160] the “% of control remaining” value was 95.9626.
In the case of `c1ccc(Nc2[nH]nnc2-c2ccccc2)cc1` [CBK261015], the “% of control remaining” value was 74.8371.
For `N#C/C(=C\c1ccc(OCC(=O)c2ccc(F)cc2)cc1)c1nc(-c2cc3ccccc3oc2=O)cs1` [CBK266769], the “% of control remaining” value was 105.749.
In the case of `O=S(=O)(Nc1nnc(Cc2ccc(Cl)cc2)s1)c1ccc(Cl)cc1` [CBK200048], the “% of control remaining” value was 100.313.
In the case of `O=C1N(c2cccc(Cl)c2)Cc2nc(=O)[nH]n21` [CBK288430], the “% of control remaining” value was 92.8344.
`CN1CC(C(=O)N2CCCC(c3cc4cccnc4[nH]3)C2)CC1=O` (stereo not shown) [CBK284958] was tested, and the “% of control remaining” value was 122.209.
`Cc1cc2cc3c(nc2cc1C)OCCNC3` [CBK281939] was tested, and the “% of control remaining” value was 93.4997.
In the case of `CCc1nc2ccc(C(=O)N3CCCCC3)cn2c1N(C)CCC(C)C` [CBK146065], the “% of control remaining” value was 96.1701.
For `CN1CCN(c2cc(N)nc(N)n2)CC1` [CBK266102], the “% of control remaining” value was 142.061.
For `O=C(CSCc1c(Cl)cccc1Cl)Nc1ccc(-c2nnc(-c3ccccc3)o2)cc1` [CBK267817], the “% of control remaining” value was 97.8966.
In the case of `CC1CCCN(CC(O)COCc2ccc3c(c2)OCO3)C1` (stereo not shown) [CBK262830C], the “% of control remaining” value was 78.8913.
In the case of `CC(C)c1ccc(CNC(=O)c2ccc3[nH]ccc3c2)cc1` [CBK161754], the “% of control remaining” value was 99.5469.
For `O=C(O)COc1ccccc1/C=N\N1CCN(Cc2ccccc2Cl)CC1` [CBK020891], the “% of control remaining” value was 91.9448.
`CCOC(=O)c1ccc(NS(=O)(=O)c2cc(Cl)ccc2Cl)cc1` [CBK077746] was tested, and the “% of control remaining” value was 83.5055.
For `CCOC(=O)C1CCN(Cc2cccs2)CC1` [CBK026999], the “% of control remaining” value was 71.0266.
For `CC(C)(C)N(Cc1ccccc1)C(=O)Cn1nc(C(=O)O)c2ccccc2c1=O` [CBK297498], the “% of control remaining” value was 73.2045.
With `COc1ccccc1C/C(N)=N/OC(=O)COc1cccc2ccccc12` [CBK263012] the “% of control remaining” value was 105.157.
With `CN1CCN(C(=O)c2ccc(-c3cccc(C(=O)NCCO)c3)nc2N(C)C)CC1` [CBK076581] the “% of control remaining” value was 102.599.
With `O=C1COc2ccccc2CCCC[C@@H]2CN(C(=O)CN3C(=O)CNC3=O)CC[C@H]2N1` [CBK292047] the “% of control remaining” value was 101.002.
In the case of `COc1ccc(-n2c(SCCc3ccccc3)nnc2-c2ccncc2)cc1` [CBK265618], the “% of control remaining” value was 114.801.
`c1coc(C2N3CCC4(CC3)c3[nH]c5ccccc5c3CCN24)c1` (stereo not shown) [CBK282862] was tested, and the “% of control remaining” value was 87.573.
In the case of `COc1cc(NC(=S)NCCN2CCOCC2)c(OC)cc1Cl` [CBK265888], the “% of control remaining” value was 92.2278.
`N#Cc1ccc(C(=O)NCc2ccc(OC3CCNCC3)cc2)cc1` [CBK036358T] was tested, and the “% of control remaining” value was 104.152.
`CC(C)[C@H](CO)Nc1nccnc1-c1ccncc1` [CBK089030] was tested, and the “% of control remaining” value was 66.5835.
In the case of `Cc1cc(Nc2ccc(I)cc2)n2ncnc2n1` [CBK027364], the “% of control remaining” value was 32.0702.
With `Cc1cccc(=O)n1CCCn1cc(-c2ncc[nH]2)nn1` [CBK307401] the “% of control remaining” value was 63.4882.
With `O=C(NCc1csc(-c2ccccc2)n1)C(F)(F)F` [CBK092340] the “% of control remaining” value was 99.0557.
With `Cc1nc2cc(OCc3nc(C(=O)NC4CCNC4=O)co3)ccc2s1` (stereo not shown) [CBK307298] the “% of control remaining” value was 28.0867.
With `COc1cc(CCN2CCN(C(C)C)CC2)cc(OC)c1OC` [CBK028881C] the “% of control remaining” value was 54.2114.
In the case of `O=c1[nH]c2ncc(-c3ccco3)nc2n1Cc1ccc(F)c(Cl)c1` [CBK064393], the “% of control remaining” value was 74.6113.
In the case of `O=C(NC1Cc2ccccc2C1)c1ccc2ncccc2c1` [CBK200354], the “% of control remaining” value was 97.0208.
With `CC(=O)Nc1ccc(-c2ccc(=O)n3c2[C@@H]2C[C@@H](CN(C4CCOCC4)C2)C3)cc1` [CBK289201] the “% of control remaining” value was 99.1355.
For `CCc1nc2ccc(C(=O)N(C)CCN(C)C)cn2c1N(CC)CCOC` [CBK146018], the “% of control remaining” value was 101.445.
For `CCCCN1C(=O)N(c2nnc(C(C)(C)C)s2)C(=O)C1c1ccc(Cl)c(Cl)c1` (stereo not shown) [CBK085921], the “% of control remaining” value was 82.1029.
With `Cc1ccc(S(=O)(=O)CC(=O)N2CCCC3(CCN(Cc4ccccc4)C3)C2)cc1` (stereo not shown) [CBK137098T] the “% of control remaining” value was 123.942.
In the case of `O=c1[nH]c(=O)c2c3c(sc2[nH]1)CCCC3` [CBK027724], the “% of control remaining” value was 29.5527.
With `CCN(Cc1c[nH]nc1-c1ccc(OC)cc1F)CC1CCCO1` (stereo not shown) [CBK307350] the “% of control remaining” value was 72.7088.
`O=C1CC(Sc2ccccc2)C(=O)N1c1ccc(Cc2ccc(N3C(=O)CC(Sc4ccccc4)C3=O)cc2)cc1` (stereo not shown) [CBK263797] was tested, and the “% of control remaining” value was 93.5226.
In the case of `CCOC(=O)c1sc2nc(C)ccc2c1N` [CBK115377], the “% of control remaining” value was 88.4216.
With `Cc1cc(Br)ccc1S(=O)(=O)N(C)c1ccc(N2CCNCC2)c2ccccc12` [CBK016170C] the “% of control remaining” value was 7.348.
In the case of `COc1cccc(Oc2nccnc2/C=C/c2ccccc2)c1` [CBK106877], the “% of control remaining” value was 93.2992.
In the case of `COc1ccc(C)cc1C(O)CN1CCOC(c2ccc(F)cc2)C1` (stereo not shown) [CBK298264], the “% of control remaining” value was 106.091.
For `CC(C)C1c2cccn2CCN1C(=O)c1cc(-c2ccccn2)n[nH]1` (stereo not shown) [CBK283223], the “% of control remaining” value was 114.09.
In the case of `Fc1ccc(CCNC(=S)NC2CCCC2)cc1` [CBK266175], the “% of control remaining” value was 76.2427.
For `CCOC(=O)c1sc(NC(=O)Nc2cccc(Cl)c2)c(C(N)=O)c1C` [CBK262658], the “% of control remaining” value was 91.3282.
In the case of `Cc1cccc(-c2nccnc2C2CCCN(C(=O)COc3ccc(F)cc3)C2)c1` (stereo not shown) [CBK286241], the “% of control remaining” value was 99.6718.
For `O=S(=O)(Nc1nccnc1-c1cccs1)C1CC1` [CBK050764], the “% of control remaining” value was 137.484.
`COc1ccccc1Cc1noc(COc2cccc(C)c2C)n1` [CBK265521] was tested, and the “% of control remaining” value was 64.2233.
In the case of `O=C(O)COc1cccc(NS(=O)(=O)c2ccc(Br)cc2)c1` [CBK286911], the “% of control remaining” value was 86.0045.
In the case of `Cc1ccc(S(=O)(=O)N(CC(=O)Nc2ccc(Cl)cc2C)c2cccc(Cl)c2C)cc1` [CBK264021], the “% of control remaining” value was 102.773.
With `CC(C)CC(C(=O)O)N1C(=O)/C(=C2/C(=O)Nc3ccc(Br)cc32)SC1=S` (stereo not shown) [CBK261610] the “% of control remaining” value was 97.5483.
